SMILES strings stand for the structures. The whole screen tested about 310,000 compounds, of which about 14,000 (4.5%) showed an effect of 50% or more. The effect is printed as a negative number. This is one part of the list.
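Note: peak tail current of the secondary pulse compared with the same well before compound.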

The test deals with human ether-à-go-go-related gene (hERG) potassium channel (human, UniProt Q12809). Put plainly: primary screen, population patch clamp on CHO cells stably expressing hERG.
Chain of human ether-à-go-go-related gene (hERG) potassium channel (Q12809 whole entry, looked up): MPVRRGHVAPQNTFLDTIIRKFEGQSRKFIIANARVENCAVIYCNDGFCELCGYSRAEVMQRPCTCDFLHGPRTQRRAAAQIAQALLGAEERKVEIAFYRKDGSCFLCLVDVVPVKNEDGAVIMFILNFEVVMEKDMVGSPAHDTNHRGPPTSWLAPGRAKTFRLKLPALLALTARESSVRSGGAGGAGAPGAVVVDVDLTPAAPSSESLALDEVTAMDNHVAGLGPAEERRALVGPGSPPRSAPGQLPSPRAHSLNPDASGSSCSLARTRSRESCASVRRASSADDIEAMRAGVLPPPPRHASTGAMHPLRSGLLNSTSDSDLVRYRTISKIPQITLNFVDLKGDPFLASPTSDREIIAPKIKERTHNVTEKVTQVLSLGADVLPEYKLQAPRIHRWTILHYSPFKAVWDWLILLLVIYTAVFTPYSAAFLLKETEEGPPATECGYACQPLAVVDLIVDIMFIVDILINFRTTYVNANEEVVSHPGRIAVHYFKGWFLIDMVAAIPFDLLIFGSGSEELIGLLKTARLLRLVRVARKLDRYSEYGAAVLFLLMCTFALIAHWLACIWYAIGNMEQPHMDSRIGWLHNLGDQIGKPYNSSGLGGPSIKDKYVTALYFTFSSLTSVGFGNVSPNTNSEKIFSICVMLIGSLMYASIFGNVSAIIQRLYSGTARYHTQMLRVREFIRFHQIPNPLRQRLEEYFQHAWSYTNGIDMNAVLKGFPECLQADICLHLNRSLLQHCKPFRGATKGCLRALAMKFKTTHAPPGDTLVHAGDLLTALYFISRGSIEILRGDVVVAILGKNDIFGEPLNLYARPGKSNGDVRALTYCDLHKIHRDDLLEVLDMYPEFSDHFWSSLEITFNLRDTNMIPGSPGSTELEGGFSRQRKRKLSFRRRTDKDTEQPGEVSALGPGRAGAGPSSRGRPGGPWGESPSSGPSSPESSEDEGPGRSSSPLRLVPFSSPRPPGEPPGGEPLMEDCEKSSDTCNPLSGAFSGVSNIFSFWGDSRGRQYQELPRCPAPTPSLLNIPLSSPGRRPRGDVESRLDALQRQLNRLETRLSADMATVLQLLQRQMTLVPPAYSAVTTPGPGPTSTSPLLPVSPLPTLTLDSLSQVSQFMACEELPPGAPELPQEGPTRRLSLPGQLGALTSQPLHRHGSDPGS
Regarding `COc1ccc(NC(=O)c2cc(=O)c3ccccc3o2)cc1Cl`, the “hERG current change (%, negative = inhibition) at 10uM” value is on record as 30%.

As for `Cc1cc(C)c(OCC(=O)Nc2cccc(NC(=O)c3ccco3)c2)c(Br)c1`, the “hERG current change (%, negative = inhibition) at 10uM” value is on record as 1.79%.

In the case of `N#Cc1cc(C(=O)c2cc(Cl)ccc2O)cn(-c2ccccc2)c1=O`, the “hERG current change (%, negative = inhibition) at 10uM” value was -24.8%.

Take `COc1ccccc1N1CCN(CC(=O)Nc2ccc(S(=O)(=O)N3CCCCCC3)cc2)CC1`: the “hERG current change (%, negative = inhibition) at 10uM” value is -28.7%.

`Nc1nc(NC(=O)/C=C/c2ccccc2)nn1-c1ccccc1`: the “hERG current change (%, negative = inhibition) at 10uM” value was -32.6%.

In the case of `CC(Cc1cccs1)NC(=S)Nc1ccc(Cl)c(Cl)c1` (centres unmarked), the “hERG current change (%, negative = inhibition) at 10uM” value is given as -5.59%.

`O=C(CSc1nc(-c2ccco2)cc(C(F)(F)F)n1)Nc1ccc(C(=O)N2CCOCC2)cc1`: the “hERG current change (%, negative = inhibition) at 10uM” value was -4.46%.

Take `Cc1ccc(C2C(=O)N(C3CCC(C)CC3)CC(=O)N2C2CCCC2)cc1` (centres unmarked): the “hERG current change (%, negative = inhibition) at 10uM” value was -35.5%.

`CCOC(=O)c1c(C)[nH]c(C)c1S(=O)(=O)N1CCN(c2ccc(F)cc2)CC1`: the “hERG current change (%, negative = inhibition) at 10uM” value is given as -39.1%.

For the compound `CC(=O)c1cc(C#N)c(NCc2cc(-c3ccccc3)no2)nc1C`, the “hERG current change (%, negative = inhibition) at 10uM” value is recorded as 12.2%.

With `CC(C)c1ccc(NC2=CC(=O)CC(C)(C)C2)cc1`, the “hERG current change (%, negative = inhibition) at 10uM” value came out at 12.6%.

Turning to `Cc1ccc(C)c(N(C(=O)c2snc(C(N)=O)c2N)C(C(=O)NCC2CCCO2)c2cccs2)c1` (centres unmarked), the “hERG current change (%, negative = inhibition) at 10uM” value is listed as -10.8%.

Consider `CCOc1ccc(CC(C(N)=O)C(N)=O)cc1CN(C)C`, for which the “hERG current change (%, negative = inhibition) at 10uM” value amounted to 3.02%.

Turning to `CCOC(=O)c1cccc(NC(=O)CCn2c(=O)oc3ccccc32)c1`, the “hERG current change (%, negative = inhibition) at 10uM” value was -26.4%.

Regarding `N=C1C(c2ccccc2)=C(O)CN1NC(=O)c1ccccc1`, the “hERG current change (%, negative = inhibition) at 10uM” value came to 13.1%.

Take `CC1CN(S(=O)(=O)c2ccc(CN3C(=O)c4cccnc4C3=O)s2)c2ccccc2O1` (centres unmarked): the “hERG current change (%, negative = inhibition) at 10uM” value is -11.5%.

As for `O=C(NC(NNc1ccc([N+](=O)[O-])cc1)(C(F)(F)F)C(F)(F)F)c1ccc(F)cc1`, the “hERG current change (%, negative = inhibition) at 10uM” value is given as -2.67%.

For the compound `O=C(/C=C/c1ccccc1)OCc1cncs1`, the “hERG current change (%, negative = inhibition) at 10uM” value amounted to 10.6%.

Turning to `C[C@@]12C(=O)N(CC3CCCO3)CC(=O)N1[C@H]1c3ccccc3OC[C@@H]1[C@@H]2c1ccccc1` (some centres unmarked), the “hERG current change (%, negative = inhibition) at 10uM” value stood at 1.11%.

For `NC(=O)c1ccsc1NC(=O)COC(=O)c1c(F)cccc1Cl`, the “hERG current change (%, negative = inhibition) at 10uM” value is on record as -18.8%.

As for `O=C(NN=C1CCCCCCC1)c1ccccn1`, the “hERG current change (%, negative = inhibition) at 10uM” value was 2.74%.

With `COc1ccc(OCCCC(=O)NCCc2ccc(OC)c(OC)c2)cc1`, the “hERG current change (%, negative = inhibition) at 10uM” value worked out at 23.8%.

Consider `CC(NC(=O)Nc1cccc(Cl)c1)C(c1cccs1)N1CCCC1` (centres unmarked), for which the “hERG current change (%, negative = inhibition) at 10uM” value is reported as -22.8%.

As for `CNC(=S)NCC(O)c1ccc([N+](=O)[O-])cc1` (centres unmarked), the “hERG current change (%, negative = inhibition) at 10uM” value was 5.5%.

Regarding `O=C(Nc1ccc(CSc2ccccc2)cc1)c1ccc(CN2CCOCC2)cc1`, the “hERG current change (%, negative = inhibition) at 10uM” value is -4.34%.

As for `Cc1ccc(C(=O)NCC2CCCN2S(=O)(=O)c2cccs2)cc1C` (centres unmarked), the “hERG current change (%, negative = inhibition) at 10uM” value is given as -16.8%.

On to `CCN(CC)S(=O)(=O)c1ccc(NC(=O)CNC2CCCCC2)cc1.O=C(O)C(=O)O`, for which the “hERG current change (%, negative = inhibition) at 10uM” value was -7.08%.

In the case of `O=C(CSc1ccc(-c2ccco2)nn1)NCc1ccccc1`, the “hERG current change (%, negative = inhibition) at 10uM” value is on record as -12.9%.

On to `CCOC(=O)N1CCN(C(=S)Nc2ccc(C)cc2C)CC1`, for which the “hERG current change (%, negative = inhibition) at 10uM” value is on record as 5.08%.

`COc1ccc2c(c1)c(=O)oc1c(C)c(OC(C)C(=O)NCC3CCC(C(=O)O)CC3)ccc12` (centres unmarked): the “hERG current change (%, negative = inhibition) at 10uM” value was found to be 13.7%.

With `CCn1cc(CN2CCCC(C(=O)Nc3ccc(-c4cscn4)cc3)C2)c(C)n1` (centres unmarked), the “hERG current change (%, negative = inhibition) at 10uM” value is on record as -8.71%.

Consider `COC(=O)c1ccc(CSc2nc(C)nc3c2c(=O)n(C)c(=O)n3C)o1`, for which the “hERG current change (%, negative = inhibition) at 10uM” value is reported as 14.7%.

As to `CC(C)CCn1c(SC(C)C(=O)NC2CC2)nc2ccccc2c1=O` (centres unmarked), the “hERG current change (%, negative = inhibition) at 10uM” value is 5.98%.

On to `CCOc1cc(/C=N/O)ccc1OCC(=O)Nc1cccc(C)c1`, for which the “hERG current change (%, negative = inhibition) at 10uM” value is 7.84%.

Consider `CCC(=O)Nc1ccc(C2C(=O)c3ccccc3C2=O)cc1`, for which the “hERG current change (%, negative = inhibition) at 10uM” value came to 4.71%.

With `Cc1cccc(NC(=O)CSc2nc3nc4c(cc3c(=O)n2-c2ccccc2)CCCC4)c1`, the “hERG current change (%, negative = inhibition) at 10uM” value is -5.76%.

As for `CC(=O)c1ccc(NC(=O)N2C[C@H]3C[C@@H](C2)c2cccc(=O)n2C3)cc1`, the “hERG current change (%, negative = inhibition) at 10uM” value is reported as 0.474%.

Turning to `Cc1cc(C(=O)COC(=O)c2csc3c2CCCC3)c(C)n1C`, the “hERG current change (%, negative = inhibition) at 10uM” value worked out at 22.1%.

Regarding `COC(=O)c1ccc(CN2CCC(CO)(Cc3ccc(OC)cc3)CC2)cc1`, the “hERG current change (%, negative = inhibition) at 10uM” value is -66.1%.

In the case of `CCNC(=S)Nc1ccc(S(=O)(=O)Nc2cc(C)nc(C)n2)cc1`, the “hERG current change (%, negative = inhibition) at 10uM” value was 25.1%.

As for `O=C(c1cccc(S(=O)(=O)NCc2ccccc2)c1)N1CCN(c2ccc(F)cc2)CC1`, the “hERG current change (%, negative = inhibition) at 10uM” value is on record as -58.1%.

With `CCOC(=O)C1CCN(C(=S)Nc2cc(OC)c(OC)cc2C(=O)OC)CC1`, the “hERG current change (%, negative = inhibition) at 10uM” value was -10.9%.

Regarding `O=C(CSc1ccccc1)N1CCN(S(=O)(=O)c2ccccc2F)CC1`, the “hERG current change (%, negative = inhibition) at 10uM” value is -23.9%.

With `CC(=O)Nc1ccc(S(=O)(=O)Nc2nc3ccc([N+](=O)[O-])cc3s2)cc1`, the “hERG current change (%, negative = inhibition) at 10uM” value turned out to be 22.2%.

Source of the values: PMC4336329 (PLoS ONE, 2015).
